# Source: PubChem BioAssay AID504706 (National Center for Advancing Translational Sciences (NCATS), 2011)
# The whole screen tested about 320,000 compounds, of which about 200 (0.062%) were called active. The shares of active, inactive and inconclusive entries below differ from those in the screen. The call rests on the fitted dose curve; in most records, active means well fitted activation curve with a large enough effect; inconclusive means small, poorly fitted or top-dose-only effect; inactive means no such curve, though single readings can be large or run the other way. No potency is given beside an inconclusive call; the fits are too rough.
# Test: qHTS assay for re-activators of p53 using a Luc reporter; further: nearly all actives have a fitted effect of over 45% in size
# Conditions: H1299 p53-A138V BP100-luciferase reporter, luminescence, 24 h; series mostly up to 92.2 µM
# Summary of the method: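 H1299 (p53-null), stable ts p53-A138V + BP100-Luc; 1000 cells/well, Opti-MEM/10% FBS; cpd 4 pt, 1:5; 24 h, 37 deg C, 5% CO2; detection reagent 10 min RT; luminescence.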
# Potency means the concentration at half of the fitted maximal effect; tags describe the fitted curve by direction and shape.
row,Structure (SMILES),Potency
1,CCN(C)c1ccc(/C=N\n2nnnc2N)cc1,"inconclusive [activator, partial curve, poor fit]"
2,CC1c2cc3c(cc2CCN1C(=O)c1ccc(Br)cc1)OCCCO3 (stereo not drawn),inactive
3,C=CCn1c(SCc2csc(C)n2)nc2sc3c(c2c1=O)CCCC3,inactive
4,CCc1nc2c(c(=O)c3ccccc3n2C)c(=O)n1C1CCCCCC1,"inconclusive [activator, single point]"
5,O=C(NCCOc1ccccc1)c1cc([N+](=O)[O-])ccc1N1CCOCC1,"inconclusive [activator, single point]"
6,CCN(CC)S(=O)(=O)c1ccc(C(=O)NC2=NCCS2)cc1,inactive
7,COc1ccc(NC(=O)c2sc(SC)nc2N)cc1,"inconclusive [activator, full curve, poor fit]"
8,CCn1nnc(NC(=O)c2cccc(-c3cc4ccccc4oc3=O)c2)n1,"inconclusive [activator, full curve, poor fit]"
9,CCOC(=O)c1c(N/N=C/c2ccncc2)n[nH]c1C,inactive
10,COc1ccc(NC(=O)c2oc3ccccc3c2C)c(OC)c1,"inconclusive [activator, partial curve, poor fit]"
11,ClCc1nc2ccccc2c2ccccc12,inactive
12,O=C(N/N=C/c1cc(Cl)c(O)c(Cl)c1)c1cc2c(ccc3ccccc32)o1,inactive
13,CCOC(=O)/C(C#N)=C\c1ccc(CC)s1,inactive
14,Cc1cccc(OCCn2c(=S)[nH]c3ccccc32)c1,"inconclusive [activator, single point]"
15,CCCn1cnnc1CNC(=O)C1CCC(=O)N(CCc2ccc(OC)cc2)C1 (stereo not drawn),"inconclusive [activator, single point]"
16,O=C(Oc1ccc2c(c1)O/C(=C\c1ccncc1)C2=O)c1ccccc1,"inconclusive [activator, full curve, poor fit]"
17,COc1ccccc1C(=O)O/N=C(\N)c1ccc(Cl)cc1,inactive
18,CCCC(=O)Nc1ccc(C(=O)NCCc2ccc(F)cc2)cc1,"inconclusive [activator, full curve, poor fit]"
19,Cn1cccc1C(=O)OCc1ccc(C(C)(C)C)cc1,"inconclusive [activator, full curve, poor fit]"
20,COC(=O)CCC(=O)OC1(C)C(=O)C2=CN(C3CCCC3)C(c3ccc(OC)cc3)=CC2=C(Br)C1=O (stereo not drawn),inactive
21,c1ccc(-c2cc(N3CCCCC3)ncn2)cc1,"inconclusive [activator, full curve, poor fit]"
22,Cc1ccc(C(=O)N/N=C\c2ccc[nH]2)cn1,inactive
23,Cc1ccc(O)c(NC(=O)c2cc(-c3ccco3)on2)c1,"inconclusive [activator, partial curve, poor fit]"

row,Structure (SMILES),Potency
1,CCN(CC)CCCNC(=O)c1sc2nc(-c3ccc(F)cc3)cn2c1C,"inconclusive [activator, single point]"
2,CC(CN1CCOCC1)OC(=O)COc1ccc(F)cc1 (stereo not drawn),"inconclusive [activator, partial curve, poor fit]"
3,CCc1cccc(NC(=O)C2CCCN(c3ncnc4c3nc3n4CCCCC3)C2)c1 (stereo not drawn),"inconclusive [activator, single point]"
4,Cc1csc(NC(=O)COc2ccc3c(c2)CCC3)n1,"inconclusive [activator, full curve, poor fit]"
5,COc1ccc(OC)c(NC(=O)CSc2nccn2Cc2ccco2)c1,inactive
6,CC(C)c1ccc(/C=C2\SC(=O)N(CC(=O)NC3C=CS(=O)(=O)C3)C2=O)cc1 (stereo not drawn),"inconclusive [activator, partial curve, poor fit]"
7,CN(C)S(=O)(=O)c1ccc(Cl)c(NC(=O)COC(=O)C2CCCO2)c1 (stereo not drawn),inactive
8,COc1ccc(S(=O)(=O)Nc2cccc(-c3ccc(N4CCCCCC4)nn3)c2)cc1OC,"inconclusive [activator, single point]"
9,CCCC1c2ccc(C)n2CCN1C(=O)Nc1ccccc1Cl (stereo not drawn),"inconclusive [activator, partial curve, poor fit]"
10,COC(=O)[C@@]1(Cc2ccccc2)[C@H]2C(=O)N(C)C(=O)[C@H]2[C@H]2CN=C(SCc3ccc(C#N)cc3)N21,inactive
11,Cc1ccccc1N1CCN(C(=S)c2ccc(-c3cccc([N+](=O)[O-])c3)o2)CC1,"inconclusive [activator, partial curve, poor fit]"
12,O=C(CSc1ncn[nH]1)c1ccccc1,"inconclusive [activator, partial curve, poor fit]"
13,CC(=O)COc1ccc2c3c(c(=O)oc2c1C)CCCCC3,"inconclusive [activator, partial curve, poor fit]"
14,O=C(NCc1nc2ccccc2[nH]1)c1cccs1,"inconclusive [activator, single point]"
15,Cc1ccc2nc(NC(=O)COC(=O)c3cccnc3)sc2c1,"inconclusive [activator, partial curve, poor fit]"
16,N/C(=N\OC(=O)c1cccc([N+](=O)[O-])c1)c1cccnc1,"inconclusive [activator, partial curve, poor fit]"
17,COC(=O)/C=C1\SC(=NC(=O)c2ccc(-c3ccccc3)cc2)NC1=O,inactive
18,COc1ccc(C2OC3=C(Nc4cc(C)c(C)cc4N3)C2=O)cc1 (stereo not drawn),"inconclusive [activator, full curve, poor fit]"
19,O=C(Nc1ccc2oc(-c3ccccc3Cl)nc2c1)c1ncn[nH]1,"inconclusive [activator, full curve, poor fit]"
20,CN(C)c1ccc(-c2ccccc2)nn1,"inconclusive [activator, full curve, poor fit]"
21,COc1ccc(CNC(=O)Cn2cccc2C(=O)c2ccccc2)cc1,"inconclusive [activator, partial curve, poor fit]"
22,O=C(NC1CC1)c1cccc(NC(=O)c2cn3ccccc3n2)c1,"inconclusive [activator, partial curve, poor fit]"
23,O=c1c2cc(-c3ccccc3)sc2nc2n1N=C(c1ccccc1)CS2,"inconclusive [activator, partial curve, poor fit]"

row,Structure (SMILES),Potency
1,O=[N+]([O-])c1ccc(N/N=C\c2cccnc2)nc1,inactive
2,CCCc1cc(C(=O)Nc2ccc(C(=O)c3ccc(C)cc3)cc2)n(C)n1,inactive
3,COc1ccc(C(=O)Nc2ccc(-c3nnn(CC(=O)N4CCN(C(=O)c5ccco5)CC4)n3)cc2)cc1,inactive
4,Cc1ccc(C(=O)NC(=S)Nc2ccccc2N2CCOCC2)cc1C,inactive
5,CN1CCN(CCC(=O)N/N=C/c2cc([N+](=O)[O-])ccc2O)CC1,inactive
6,CC1O[C@@H](OC2C(O)C(O)C(CO)O[C@H]2OC2C[C@]3(C)C(CC(O)C4[C@@H]([C@]5(C)CC[C@@H](C(C)(C)O)O5)CC[C@]43C)[C@@]3(C)CCC(O)C(C)(C)C23)C(O)C(O)C1O (stereo partly drawn),inactive
7,O=C(Nc1ccc(Br)c(C(F)(F)F)c1)c1ccc(C(F)(F)F)cc1,"inconclusive [activator, partial curve, poor fit]"
8,CC(C)(C)c1ccc(C(=O)Nc2cccc(-n3cnnn3)c2)cc1,"inconclusive [activator, partial curve, poor fit]"
9,N/C(CN1CCCC1=O)=N\OC(=O)c1ccccc1Cl,"inconclusive [activator, single point]"
10,CCOc1ccc(-c2nc(C#N)c(NCC(C)C)o2)cc1,inactive
11,O=[N+]([O-])c1nn(-c2ccc(Cl)cc2)n(O)c1=NCc1ccccc1,"inconclusive [activator, partial curve, poor fit]"
12,O=C(Nc1ccc(F)cc1)c1cccnc1,"inconclusive [activator, single point]"
13,ClC(=C\c1ccccc1)/C=N/N1CCN(c2ccccn2)CC1,"inconclusive [activator, full curve, poor fit]"
14,O=[N+]([O-])c1cccc(-c2nnc(-c3ccccc3F)o2)c1,inactive
15,Cc1nn(C(=O)c2cccs2)c(N)c1-c1ccccc1,"inconclusive [activator, full curve]"
16,c1ccc(-n2nnc3ccccc32)nc1,"inconclusive [activator, full curve, poor fit]"
17,CCCC(=O)Nc1sc2c(c1C#N)CCCCC2,"inconclusive [activator, partial curve, poor fit]"
18,COc1ccc(NC(=O)c2ccc(C#CC(C)(C)O)cc2)cc1,"inconclusive [activator, partial curve, poor fit]"
19,COc1ccc(NC(=O)n2ncc3c(C)cccc32)cc1OC,"inconclusive [activator, single point]"
20,O=C(Nc1ccc2c(c1)OCO2)NC1(C(F)(F)F)Oc2ccccc2O1,"inconclusive [activator, full curve, poor fit]"
21,C[C@H](CO)N1C[C@H](C)[C@@H](CN(C)S(=O)(=O)c2ccc(F)cc2)Oc2ccc(NC(=O)Nc3ccc(C(F)(F)F)cc3)cc2C1=O,inactive
22,CC(=O)c1c(C)[nH]c(C(=O)Nc2ccc(C)cc2Br)c1C,"inconclusive [activator, partial curve, poor fit]"
